This is an account of results in patent US20160237160A1, “ANTI-TWEAKR ANTIBODIES AND USES THEREOF” (BAYER PHARMA AKTIENGESELLSCHAFT, priority 2013, published 2016).

One experiment relates to A375 xenografts. As to the kind of experiment: Cytokines in serum/plasma of xenograft bearing mice (Luminex). The experiment is classed as in vivo. The settings on record: 10 mg/kg. The text has this:
To investigate, whether the observed cytokine secretion is also of relevance in xenograft tumors in mice, human and murine cytokines in serum/plasma from tumor bearing (A375, WiDr) as well as tumor free mice were investigated. 5×10^6 A375 cells in Matrigel/PBS (1:1) or 5×10^6 WiDr cells in Matrigel/Medium (1:1) were subcutaneously inoculated in immunodeficient female NMRI nude mice. Parallel to A375-bearing mice, non-tumor mice were investigated. Treatment started 7d after inoculation with established tumors of about 40 mm^2. […] Mice were then sacrificed at given time-points (0, 6 h, 24 h for A375-bearing mice and 0, 7 h, 24 h, 72 h, 168 h, 240 h for WiDr-bearing mice) to harvest serum/plasma samples. Blood was collected after decapitation and serum was prepared by 30 minutes clotting with subsequent centrifugation at 1000×g.
(§1) Cytokines were quantified using Luminex® bead immunoassays. Human cytokines were determined with Human Cytokine Magnetic 25-plex panel (Invitrogen®, Cat-No. LHC0009M), comprising IL-1β, IL-1RA, IL-2, IL-2R, IL-4, IL-5, IL-6, IL-7, IL-8, IL-10, IL-12 (p40), IL-13, IL-15, IL-17, TNF-α, IFN-α, IFN-γ, GM-CSF, MIP-1α, MIP-1β, IP-10, MIG, Eotaxin, RANTES, and MCP-1). Murine cytokines were determined with Mouse Cytokine Magnetic 20-plex panel (Invitrogen®, Cat-No. LHC0006M) comprising FGF basic, GM-CSF, IFN-γ, IL-1α, IL-1β, IL-2, IL-4, IL-5, IL-6, IL-10, IL-13, IL-12 (p40/p70), IL-17, IP-10, KC, MCP-1, MIG, MIP-1α, TNF-α and VEGF). The assays were conducted according to the manufacturer's instructions and measured by the Luminex reader Bio-Plex 200 (Bio-Rad GmbH). Cytokine concentrations were interpolated from standard curves, as part of the assay procedure, by the operating software Bio-Plex Manger (Bio-Rad GmbH).

Another experiment relates to MDA-MB-231 cells. In words: FACS binding to cell surface. Further details: species or system human. To be noted: MDA-MB-231, BreastCA; 10 μg/ml. The protocol:
(§2) To determine the binding characteristics of the anti-TWEAKR antibodies on mouse and human cancer cell lines, binding was tested by flow cytometry to a panel of cell lines. Adherent cells were washed twice with PBS without Ca and Mg (Biochrom #L1825: aqueous solution containing 8000 mg/l NaCl, 200 mg/l KCl, 1150 mg/l Na2HPO4, and 200 mg/l KH2PO4) and detached by enzyme-free PBS based cell dissociation buffer (Invitrogen). Cells were suspended at approximately 10^5 cells/well in FACS buffer (PBS without Ca/Mg, containing 3% FCS, Biochrom). Cells were centrifuged (250 g, 5 min, 4° C.) and supernatant discarded. Cells were resuspended in dilutions of the antibodies of interest (10 μg/ml in 80 μl if not indicated otherwise) in FACS buffer, and incubated on ice for 1 h. In the following cells were washed once with 1000 cold FACS buffer and 80 μl secondary antibody diluted at 1:150 (PE goat anti-human IgG, Dianova #109-115-098, or PE Goat Anti-Mouse IgG, Jackson Immuno Research #115-115-164) was added. After incubation for 1 h on ice cells were again washed with cold FACS buffer, resuspended in 1000 FACS buffer and analyzed by flow cytometry using a FACS-Array (BD Biosciences). Results are calculated as Geo Mean of fluorescence detected by the antibody of interest subtracted by background fluorescence as measured by detection with the secondary antibody alone. Values are scored according to the following system: Geo Mean−Geo Mean of secondary antibody alone >10: +, >100: ++, >1000: +++, 10000: ++++, close to category border in ( ).
In general terms: Flow cytometry measures light scatter and fluorescence of single cells or particles in a stream.

Another experiment relates to A375 cells. In words: FACS binding to cell surface. Further details: species or system human. The settings on record: A375, Melanoma; 10 μg/ml. The procedure:
as §2

The next experiment deals with NCI-N87 cells. In words: FACS binding to cell surface. Details: species or system human. To be noted: NCI-N87, GastricCA; 10 μg/ml. The procedure: as §2
In a further experiment the test system is HT-29 cells. As to the kind of experiment: FACS binding to cell surface. The settings on record: HT-29, CRC; 10 μg/ml. Details: species or system human. The procedure:
as §2

Another experiment has as its system PC3 cells. As to the kind of experiment: FACS binding to cell surface. The settings on record: PC3, Prostate CA; 10 μg/ml. Further details: species or system human. The protocol: as §2
A further experiment relates to tumor free mice. In words: Cytokines in serum/plasma of tumor free mice (Luminex). The experiment is classed as in vivo. To be noted: 10 mg/kg.
Excerpt: To investigate, whether the observed cytokine secretion is also of relevance in xenograft tumors in mice, human and murine cytokines in serum/plasma from tumor bearing (A375, WiDr) as well as tumor free mice were investigated. 5×10^6 A375 cells in Matrigel/PBS (1:1) or 5×10^6 WiDr cells in Matrigel/Medium (1:1) were subcutaneously inoculated in immunodeficient female NMRI nude mice. Parallel to A375-bearing mice, non-tumor mice were investigated. Treatment started 7d after inoculation with established tumors of about 40 mm^2. […]
as §1, with “Cytokine concentrations were interpolated from standard curves, as part of the assay procedure, by the operating software Bio-Plex Manger (Bio-Rad GmbH).” left out

Experiment [1] concerns A375 xenograft (melanoma). In words: Xenograft anti-tumor efficacy. The experiment is classed as in vivo, mice. To be noted: based on measurement of tumor area (*). The protocol:
Tumor cell lines were cultivated as described in the parts above and 100 μl containing cell line specific numbers of tumor cells inoculated subcutaneously (s.c.) into female athymic nude mice (NMRI nu/nu, 6-8 weeks, 20-25 g, Taconic). Mice were housed under standardized pathogen free conditions and treated according to the animal welfare guidelines.
After tumor growth to a size of approximately 40 mm^2 mice were randomized into control and treatment groups with a respective group size of n=8-10. Mice were treated with various doses of anti-TWEAKR antibodies diluted in PBS by intravenous injection (i.v.) into the tail vein with a twice per week schedule (q4dx3: applications twice per week, three applications in total; q4dx8: applications twice per week, eight applications in total). […]
Tumor growth was monitored 2-3 times per week by caliper measurement (length×width in mm) as well as body weight (in g). […]

Marks after values point to notes of the source that are not given here.

B1: TPP-1538: anti-TWEAKR human IgG1; heavy chain SEQ ID NO: 62, light chain SEQ ID NO: 61 (antibody, listed as Homo Sapiens)
heavy: EVQLLESGGGLVQPGGSLRLSCAASGFTFSPYPMMWVRQAPGKGLEWVSYISPSGGKTHYADSVKGRFTISRDNSKNTLYLQMNSLRAEDTAVYYCARGGDTYFDYFDYWGQGTLVTVSS[human IgG1 constant region not shown]
light: AQDIQMTQSPATLSASVGDRVTITCRASQSISSYLNWYQQKPGKAPKLLIYAASSLQSGVPSRFSGSGSGTDFTLTISSLQPEDFATYYCQQSYSSPGITFGPGTKVEIKRTVAAPSVFIFPPSDEQLKSGTASVVCLLNNFYPREAKVQWKVDNALQSGNSQESVTEQDSKDSTYSLSSTLTLSKADYEKHKLYACEVTHQGLSSPVTKSFNRGEC
For B1, the “levels of further human cytokines” value in the experiment on A375 xenografts (A375 tumor bearing mice) is “increased levels of human MCP-1, IP-10 and IL-1RA were observed”. In addition, in the experiment with A375 xenografts (A375 tumor bearing mice, 6 h after treatment), the “human IL-8 release” value is given as “human IL-8 is released”. For the same molecule, the “murine cytokines including the murine IL-8 analogue KC” value in the experiment on A375 xenografts (plasma of tumor bearing and tumor free mice) is “no increase of murine cytokines”. Further, the “Binding by scoring of FACS analysis” value with MDA-MB-231 cells, in the experiment on A375 cells, in the experiment with NCI-N87 cells, in the experiment with HT-29 cells and in the experiment with PC3 cells was “++ (>100: ++)” in each case. The “human cytokines in plasma of treated tumor free mice” value in the experiment with tumor free mice is “no increased secretion of human cytokines was detected”. Besides, the “Final T/C” value in experiment [1] was 0.46*.
